This passage reports binding signal (RPM ratio (pull-down/input)) results from article PMC12820563.

Some of the results follow. The list includes weakly bound sequences.

In this test the target is T1, MBP-FoxP3dN (UniProt Q99JB6).
T1 sequence: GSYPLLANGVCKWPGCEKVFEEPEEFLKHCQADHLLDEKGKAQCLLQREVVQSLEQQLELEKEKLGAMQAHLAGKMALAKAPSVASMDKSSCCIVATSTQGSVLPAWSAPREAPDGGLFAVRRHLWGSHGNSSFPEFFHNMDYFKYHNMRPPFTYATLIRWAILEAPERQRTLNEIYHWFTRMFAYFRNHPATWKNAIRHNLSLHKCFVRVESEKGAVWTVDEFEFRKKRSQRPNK
Briefly: PD-seq (MBP pull-down with sequencing). The following applies: 20 mM Tris-HCl pH 7.5, 100 mM NaCl, 1.5 mM MgCl2, 0.4 uM protein, 0.1 uM dsDNA library, 30 min, room temperature, amylose pull-down; high values mean tight binding; double strand, one strand shown.
Consider “GATGATTGTTCTCCCAGCTGATGAATTTTTTTGGTCGAGTAAACAAATTTTCCTAATCTTTCTGTTCAAGCGCCATCTAC”, for which the binding signal (RPM ratio (pull-down/input)) worked out at 0.314.

Consider “GATGATTGTTCTCCCAGCTGATGAATTCACTGTCTCGAGTAAACAAATTTTCCTAATCTTTCTGTTCAAGCGCCATCTAC”, for which the binding signal (RPM ratio (pull-down/input)) is 0.45.

Turning to “GATGATTGTTCTCCCAGCTGATGAATTTACGTCATCGAGTAAACAAATTTTCCTAATCTTTCTGTTCAAGCGCCATCTAC”, the binding signal (RPM ratio (pull-down/input)) is 1.15.

Consider “GATGATTGTTCTCCCAGCTGATGAATTTTGGCATTCGAGTAAACAAATTTTCCTAATCTTTCTGTTCAAGCGCCATCTAC”, for which the binding signal (RPM ratio (pull-down/input)) is 5.56.

Take “GATGATTGTTCTCCCAGCTGATGAATTCCTTCAGTCGAGTAAACAAATTTTCCTAATCTTTCTGTTCAAGCGCCATCTAC”: the binding signal (RPM ratio (pull-down/input)) turned out to be 0.231.

“GATGATTGTTCTCCCAGCTGATGAATTGGGAACATCGAGTAAACAAATTTTCCTAATCTTTCTGTTCAAGCGCCATCTAC”: the binding signal (RPM ratio (pull-down/input)) came out at 0.398.

Consider “GATGATTGTTCTCCCAGCTGATGAATTCGGTTGATCGAGTAAACAAATTTTCCTAATCTTTCTGTTCAAGCGCCATCTAC”, for which the binding signal (RPM ratio (pull-down/input)) came to 1.64.

With “GATGATTGTTCTCCCAGCTGATGAATTTGGACCTTCGAGTAAACAAATTTTCCTAATCTTTCTGTTCAAGCGCCATCTAC”, the binding signal (RPM ratio (pull-down/input)) was 0.415.

Take “GATGATTGTTCTCCCAGCTGATGAATTGCTATGGTCGAGTAAACAAATTTTCCTAATCTTTCTGTTCAAGCGCCATCTAC”: the binding signal (RPM ratio (pull-down/input)) turned out to be 0.866.

“GATGATTGTTCTCCCAGCTGATGAATTCCTAACTTCGAGTAAACAAATTTTCCTAATCTTTCTGTTCAAGCGCCATCTAC”: the binding signal (RPM ratio (pull-down/input)) stood at 0.231.

Take “GATGATTGTTCTCCCAGCTGATGAATTTGTGGTATCGAGTAAACAAATTTTCCTAATCTTTCTGTTCAAGCGCCATCTAC”: the binding signal (RPM ratio (pull-down/input)) is 4.85.

As to “GATGATTGTTCTCCCAGCTGATGAATTCTTAGTTTCGAGTAAACAAATTTTCCTAATCTTTCTGTTCAAGCGCCATCTAC”, the binding signal (RPM ratio (pull-down/input)) is 0.302.

Turning to “GATGATTGTTCTCCCAGCTGATGAATTAAAACCCTCGAGTAAACAAATTTTCCTAATCTTTCTGTTCAAGCGCCATCTAC”, the binding signal (RPM ratio (pull-down/input)) stood at 0.199.

Consider “GATGATTGTTCTCCCAGCTGATGAATTCAACCAATCGAGTAAACAAATTTTCCTAATCTTTCTGTTCAAGCGCCATCTAC”, for which the binding signal (RPM ratio (pull-down/input)) amounted to 0.296.

Turning to “GATGATTGTTCTCCCAGCTGATGAATTTAGCAGATCGAGTAAACAAATTTTCCTAATCTTTCTGTTCAAGCGCCATCTAC”, the binding signal (RPM ratio (pull-down/input)) came to 0.422.

As for “GATGATTGTTCTCCCAGCTGATGAATTGACTAACTCGAGTAAACAAATTTTCCTAATCTTTCTGTTCAAGCGCCATCTAC”, the binding signal (RPM ratio (pull-down/input)) was 0.383.

As to “GATGATTGTTCTCCCAGCTGATGAATTTAGACATTCGAGTAAACAAATTTTCCTAATCTTTCTGTTCAAGCGCCATCTAC”, the binding signal (RPM ratio (pull-down/input)) was 1.3.

Take “GATGATTGTTCTCCCAGCTGATGAATTCTTATCTTCGAGTAAACAAATTTTCCTAATCTTTCTGTTCAAGCGCCATCTAC”: the binding signal (RPM ratio (pull-down/input)) was determined as 0.32.

Regarding “GATGATTGTTCTCCCAGCTGATGAATTGCTGGCGTCGAGTAAACAAATTTTCCTAATCTTTCTGTTCAAGCGCCATCTAC”, the binding signal (RPM ratio (pull-down/input)) came out at 0.67.

Regarding “GATGATTGTTCTCCCAGCTGATGAATTGTAAACTTCGAGTAAACAAATTTTCCTAATCTTTCTGTTCAAGCGCCATCTAC”, the binding signal (RPM ratio (pull-down/input)) came to 1.05.

Consider “GATGATTGTTCTCCCAGCTGATGAATTACCCGCGTCGAGTAAACAAATTTTCCTAATCTTTCTGTTCAAGCGCCATCTAC”, for which the binding signal (RPM ratio (pull-down/input)) was determined as 0.464.

Regarding “GATGATTGTTCTCCCAGCTGATGAATTCCCGAACTCGAGTAAACAAATTTTCCTAATCTTTCTGTTCAAGCGCCATCTAC”, the binding signal (RPM ratio (pull-down/input)) is 0.183.

As for “GATGATTGTTCTCCCAGCTGATGAATTGAGCGATTCGAGTAAACAAATTTTCCTAATCTTTCTGTTCAAGCGCCATCTAC”, the binding signal (RPM ratio (pull-down/input)) amounted to 0.967.

On to “GATGATTGTTCTCCCAGCTGATGAATTGGCATGGTCGAGTAAACAAATTTTCCTAATCTTTCTGTTCAAGCGCCATCTAC”, for which the binding signal (RPM ratio (pull-down/input)) amounted to 0.91.

On to “GATGATTGTTCTCCCAGCTGATGAATTGTGGTTATCGAGTAAACAAATTTTCCTAATCTTTCTGTTCAAGCGCCATCTAC”, for which the binding signal (RPM ratio (pull-down/input)) came out at 2.03.

In the case of “GATGATTGTTCTCCCAGCTGATGAATTTGCTAGGTCGAGTAAACAAATTTTCCTAATCTTTCTGTTCAAGCGCCATCTAC”, the binding signal (RPM ratio (pull-down/input)) was 1.49.

Turning to “GATGATTGTTCTCCCAGCTGATGAATTCCCAGCTTCGAGTAAACAAATTTTCCTAATCTTTCTGTTCAAGCGCCATCTAC”, the binding signal (RPM ratio (pull-down/input)) stood at 0.272.

As for “GATGATTGTTCTCCCAGCTGATGAATTAGCATTTTCGAGTAAACAAATTTTCCTAATCTTTCTGTTCAAGCGCCATCTAC”, the binding signal (RPM ratio (pull-down/input)) is 4.

Take “GATGATTGTTCTCCCAGCTGATGAATTCTCTTATTCGAGTAAACAAATTTTCCTAATCTTTCTGTTCAAGCGCCATCTAC”: the binding signal (RPM ratio (pull-down/input)) stood at 0.39.

“GATGATTGTTCTCCCAGCTGATGAATTCTTGCGATCGAGTAAACAAATTTTCCTAATCTTTCTGTTCAAGCGCCATCTAC”: the binding signal (RPM ratio (pull-down/input)) worked out at 0.576.

“GATGATTGTTCTCCCAGCTGATGAATTGTAGATGTCGAGTAAACAAATTTTCCTAATCTTTCTGTTCAAGCGCCATCTAC”: the binding signal (RPM ratio (pull-down/input)) is 0.628.

With “GATGATTGTTCTCCCAGCTGATGAATTCAGCGGGTCGAGTAAACAAATTTTCCTAATCTTTCTGTTCAAGCGCCATCTAC”, the binding signal (RPM ratio (pull-down/input)) amounted to 0.441.

For the sequence “GATGATTGTTCTCCCAGCTGATGAATTAGCACGCTCGAGTAAACAAATTTTCCTAATCTTTCTGTTCAAGCGCCATCTAC”, the binding signal (RPM ratio (pull-down/input)) is 0.482.

With “GATGATTGTTCTCCCAGCTGATGAATTGTGAGCATCGAGTAAACAAATTTTCCTAATCTTTCTGTTCAAGCGCCATCTAC”, the binding signal (RPM ratio (pull-down/input)) was 1.37.

Turning to “GATGATTGTTCTCCCAGCTGATGAATTATCCACTTCGAGTAAACAAATTTTCCTAATCTTTCTGTTCAAGCGCCATCTAC”, the binding signal (RPM ratio (pull-down/input)) is 0.334.

For “GATGATTGTTCTCCCAGCTGATGAATTCGAACCTTCGAGTAAACAAATTTTCCTAATCTTTCTGTTCAAGCGCCATCTAC”, the binding signal (RPM ratio (pull-down/input)) was 0.278.

Take “GATGATTGTTCTCCCAGCTGATGAATTTTCCCCATCGAGTAAACAAATTTTCCTAATCTTTCTGTTCAAGCGCCATCTAC”: the binding signal (RPM ratio (pull-down/input)) is 0.241.

On to “GATGATTGTTCTCCCAGCTGATGAATTTCCCCATTCGAGTAAACAAATTTTCCTAATCTTTCTGTTCAAGCGCCATCTAC”, for which the binding signal (RPM ratio (pull-down/input)) came out at 0.261.

For the sequence “GATGATTGTTCTCCCAGCTGATGAATTGGTTTTCTCGAGTAAACAAATTTTCCTAATCTTTCTGTTCAAGCGCCATCTAC”, the binding signal (RPM ratio (pull-down/input)) is 2.95.

As to “GATGATTGTTCTCCCAGCTGATGAATTCGATCGATCGAGTAAACAAATTTTCCTAATCTTTCTGTTCAAGCGCCATCTAC”, the binding signal (RPM ratio (pull-down/input)) stood at 0.283.
